# Source: ChEMBL document CHEMBL4888484, “Replenishing the malaria drug discovery pipeline: Screening and hit evaluation of the MMV Hit Generation Library 1 (HGL1) against asexual blood stage Plasmodium falciparum ,using a nano luciferase reporter read-out” (2022)
# Among all 150,000 compounds or so, about 540 (0.36%) showed an effect of 50% or more. Some of the results follow.
# Test system: Plasmodium falciparum
# Test: Primary screen in NF54 nanoGlo assay, in single point, at 2uM, 72h; a lower Z score goes with more inhibition
# Type: functional, Erythrocyte
# Settings: timepoint 72 hour
Compound,% Inhibition [%],Z score
O=C(NCc1cccnc1OCC(F)F)C1=CCCC1,-6,0.86
CCOc1ccc(C(=O)NCc2cc(=O)[nH]c(C3CCC3)n2)cc1,-14,1.82
CN(CC[C@H]1CCCCO1)C(=O)CN1CC(=O)N(C)c2ccccc2C1=O,-3,0.49
COC(=O)c1cccc(NC(=O)c2cscn2)c1OC(C)C,-5,0.78
CN(CC(=O)N1CCCC[C@@H]1Cc1ccc(F)cc1)S(C)(=O)=O,3,-0.36
COc1cccc(CN2CCCn3cccc3[C@H]2c2cccc(OC)c2OC)c1OC,-15,1.48
C=CCN1CCN(C(=O)C(CC)Oc2ccc3c(c2)C(c2cccc(F)c2)N(C(=O)CC(C)C)CC3)CC1 (centres undefined),-11,1.75
COc1ccc(Cl)cc1N1CC[C@H](NC(=O)Cc2cnn(C)c2)C1,-5,0.82
CN(C(=O)C1CCOCC1)C1CCC1O (centres undefined),-19,2.39
CC1CN(CC(=O)NC2CCCCCC2)CC(C)O1 (centres undefined),-5,0.65
CN1C[C@H](c2ccc(F)cc2)C(C(=O)c2cccnc2)[C@]12C(=O)Nc1ccc(F)cc12 (some centres undefined),-11,1.38
O=C(C1CCCC1)N1CCc2nc(N3CCCCC3)nc(Oc3ccccc3)c2C1,-5,0.56
CCCc1nc(CS(=O)(=O)Cc2ccn(C3CCCC3)n2)no1,-4,0.34
COc1ccc(CN[C@H]2[C@H](O)[C@H](O)C[C@@H]2c2cccnc2)cc1,8,-1.51
Cc1ccc(-c2cn[nH]c2[C@H]2CCCN(C(=O)c3[nH]cnc3C)C2)cc1,-5,0.87
O=C(Cc1ccccc1)Nc1ccc([C@@H](O)[C@H]2COCC(=O)N2)cc1,29,-3.23
O=C(Nc1ccc2c(c1)OCCO2)N1CCC[C@@H]1CO,-5,0.79
Cn1c(=O)c2ccn(CC(=O)N3CCCCC3)c2n(C)c1=O,-12,1.9
O=C(COCc1nnc(C(=O)Nc2cccc(F)c2)s1)NCc1ccco1,-5,0.69
Cc1ccc(NC(=O)c2nnn3c2NC(C(=O)O)=C[C@H]3c2ccccc2)cc1,-6,0.87
Cc1cc(C(=O)NCCn2nc3c(cc2=O)CCC3)no1,2,-0.32

Compound,% Inhibition [%],Z score
CCC(=O)N[C@@H]1c2ccccc2C2(CCN(Cc3cc(C(C)C)[nH]n3)CC2)[C@H]1OC,15,-1.92
O=C(Cc1cccs1)N1C[C@@H]2C[C@H](NS(=O)(=O)c3cccs3)[C@H]1C2,30,-3.45
Cc1nn(CC2CC2)c(=O)n1-c1ccc(F)cc1,37,-4.75
COCCCNS(=O)(=O)c1ccc(-c2[nH]ncc2C(=O)N2CCCC2)o1,-5,0.6
C[C@@H](NC(=O)C1CCc2cn[nH]c2C1)c1ccccc1Cl (some centres undefined),9,-1.17
CO[C@H]1CC[C@@]2(OC)CCN(C(=O)c3c(C)ncnc3C)[C@H]2C1,1,-0.27
Cc1cc(S(=O)(=O)N2CCOCC3(CC3)C2)ccc1C#N,-5,0.87
CNc1nc2c(s1)C[C@@H](C(F)(F)F)CC2,4,-0.69
COc1ccccc1NC(=O)[C@H]1CCCN(S(=O)(=O)c2ccc3c(c2)NC(=O)CO3)C1,-3,0.56
O=S(=O)(N1CCCCC1)N1CCCN(Cc2ccnn2-c2ccccc2)CC1,-15,1.88
CCn1nc(C(=O)Nc2ccccc2)cc1-c1ccc(Cl)s1,-7,0.99
CC1=C(C(=O)Nc2ccccc2Oc2ccccc2)CCCO1,7,-1.01
Cc1ccc(F)cc1-c1cccc(C(=O)N[C@H]2CCCNC2=O)c1,6,-1.27
COc1ccc(CCNC(=O)N2CC3CC2C(=O)O3)cc1 (centres undefined),-12,2.29
CN(C(=O)[C@H]1CCC(=O)N(C2CCCCCC2)C1)C1CCOCC1,17,-2.17
CC(=O)N1CC[C@H]2CN(C(=O)c3ccc(C)c(C)c3)C[C@@]2(CO)C1,-12,1.69
Cc1ccc(-c2nccn3cc(C(=O)NCCCN4CCCC4)nc23)cc1,3,-0.4
COc1ccc(CN2CCCN(c3nnc(C)o3)CC2=O)cc1,-6,1.05
CC(C)c1c(C2CCN(C(=O)c3cccc(C#N)c3)CC2)noc1N,-2,0.32
C=C(C)COc1cccc(NC(=O)C(=O)NCc2csc(C)n2)c1,1,-0.16
Cc1cc(C)cc(OCc2nnc3n2CCN(C(=O)OC(C)(C)C)C3)c1,4,-0.64
